{"source": "PubChem BioAssay AID1030", "about": "(National Center for Advancing Translational Sciences (NCATS), 2008)", "note": "Several values for one entry are separate records, joined by “and”; a condition that tells them apart may be missing. Equal entries are not always repeated. Among all 220,000 compounds or so, about 16,000 (7.3%) were called active. Inconclusive means that the source gave no clear call. Such entries were picked first, then a sample of the others. The call rests on the fitted dose curve; in most records, active means well fitted inhibition curve with a large enough effect (not every such curve was filed as active); inconclusive means small, poorly fitted or top-dose-only effect, or another doubt; inactive means no such curve, though single readings can be large or run the other way. Potencies of inconclusive entries are doubtful fits and often do not repeat. Potency means the concentration at half of the fitted maximal effect; tags describe the fitted curve by direction and shape.", "data": [{"target": "Aldehyde dehydrogenase 1A1 (Homo sapiens) (UniProt P00352)", "sequence (P00352 whole entry, looked up)": "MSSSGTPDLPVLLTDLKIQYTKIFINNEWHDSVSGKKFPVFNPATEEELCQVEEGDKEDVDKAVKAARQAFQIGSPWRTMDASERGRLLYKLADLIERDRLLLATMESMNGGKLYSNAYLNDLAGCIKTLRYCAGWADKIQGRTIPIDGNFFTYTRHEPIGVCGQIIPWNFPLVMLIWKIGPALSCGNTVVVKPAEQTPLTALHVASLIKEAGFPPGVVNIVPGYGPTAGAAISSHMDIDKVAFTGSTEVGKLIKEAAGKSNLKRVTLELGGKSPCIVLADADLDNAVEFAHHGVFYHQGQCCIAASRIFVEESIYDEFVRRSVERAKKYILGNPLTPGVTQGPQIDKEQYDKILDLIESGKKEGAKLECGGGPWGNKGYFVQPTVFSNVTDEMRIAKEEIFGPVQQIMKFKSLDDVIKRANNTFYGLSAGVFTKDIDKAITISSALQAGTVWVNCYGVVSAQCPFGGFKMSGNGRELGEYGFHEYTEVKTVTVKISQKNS", "experiment": "qHTS Assay for Inhibitors of Aldehyde Dehydrogenase 1 (ALDH1A1);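 on activity, negative = inhibition: plate controls were no enzyme wells and a reference inhibitor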", "settings": "Purified ALDH1A1, NADH fluorescence, propionaldehyde substrate; series mostly up to 75.3 µM", "values": [{"smiles": "CCOC(=O)Cc1c(C)nc2c(C#N)c(C)nn2c1C", "Potency": "inconclusive: 35.5 µM [inhibitor, single point]"}, {"smiles": "CN(C)c1ccc(C(=S)N2CCN(C(=S)Nc3cccc4ccccc34)CC2)cc1", "Potency": "active: 15.8 µM"}, {"smiles": "COc1cc(NC(=O)C2CC(c3cccc(OC)c3OC)=NO2)cc(OC)c1OC", "note": "(configuration not stated)", "Potency": "inconclusive: 35.5 µM [inhibitor, single point]"}, {"smiles": "Nc1nccnc1C(=O)OCC(=O)Nc1cccc(S(=O)(=O)N2CCCCC2)c1", "Potency": "inconclusive: 28.2 µM [inhibitor, partial curve]"}, {"smiles": "Cc1ccccc1Nc1nc2ccccc2s1", "Potency": "inactive"}, {"smiles": "Cc1ccc(N(CC(=O)NCc2ccncc2)S(C)(=O)=O)cc1Cl", "Potency": "inconclusive: 23.8 µM [inhibitor, partial curve]"}, {"smiles": "CCc1cc2c(=O)c(-c3nc4ccccc4n3C)c(COCC(=O)O)oc2cc1O", "Potency": "inconclusive: 23.8 µM [inhibitor, single point]"}, {"smiles": "Cc1cc(C)n(C(=O)COc2ccccc2[N+](=O)[O-])n1", "Potency": "inconclusive: 28.2 µM [inhibitor, single point]"}, {"smiles": "CCOc1cccc(=O)c2c(C)n(CC(=O)c3ccccc3)c(C)c12", "Potency": "active: 8.91 µM"}, {"smiles": "O=C(CSc1nc(O)cc(=O)[nH]1)C1CC1", "Potency": "inconclusive: 39.8 µM [inhibitor, single point]"}, {"smiles": "CCc1ccc(S(=O)(=O)Nc2cccc(-c3ccc4nncn4n3)c2)s1", "Potency": "inconclusive: 2.51 µM [inhibitor, full curve]"}, {"smiles": "O=C1CCCC2=C1C1(CCCCC1)N=C(Nc1nc3ccccc3o1)N2", "Potency": "inconclusive: 44.7 µM [inhibitor, single point]"}, {"smiles": "CCc1cc[n+](C2=C([O-])c3ccccc3C(=O)/C2=N\\S(=O)(=O)c2cccs2)cc1", "Potency": "inconclusive: 22.4 µM [inhibitor, single point]"}, {"smiles": "Cc1cc(-c2nnc(SCc3ccccn3)o2)no1", "Potency": "inconclusive: 22.4 µM [inhibitor, single point]"}, {"smiles": "CCNc1ncc2nc(-c3ccc(F)cc3)c(=O)n(C[C@H]3CCCO3)c2n1", "Potency": "inconclusive: 2.51 µM [inhibitor, full curve]"}, {"smiles": "CC(=O)O[C@@H]1CC[C@]2(C)C(=C[C@@H]([C@@H]3C=C4C[C@@H](OC(C)=O)CC[C@]4(C)C4=C3[C@H]3C[C@@H]5O[C@@]6(CC[C@H](C)CO6)[C@@H](C)[C@@H]5[C@@]3(C)CC4)C3=C2CC[C@@]2(C)[C@H]4[C@@H](C)[C@]5(CC[C@H](C)CO5)O[C@@H]4C[C@H]32)C1", "Potency": "inconclusive: 3.98 µM [inhibitor, partial curve]"}, {"smiles": "S=P(c1ccc(N2CCOCC2)cc1N1CCOCC1)(N1CCOCC1)N1CCOCC1", "Potency": "active: 28.2 µM"}, {"smiles": "CNS(=O)(=O)c1cc2c3c(cccc3c1)C(=O)NC2=O", "Potency": "inactive"}, {"smiles": "COc1cc(OC)c(OC)cc1/C=N/Nc1ncnc2c1[nH]c1ccccc12", "Potency": "inconclusive: 25.1 µM [inhibitor, partial curve]"}, {"smiles": "CCOC(=O)c1sc(NC(=O)CSc2ncn[nH]2)c(C#N)c1C", "Potency": "inactive"}, {"smiles": "O=C(c1ccccn1)N1N=C2/C(=C/c3ccccc3)CCCC2C1c1ccccc1", "note": "(configuration not stated)", "Potency": "inconclusive: 39.8 µM [inhibitor, single point]"}, {"smiles": "O=C(CCN1C(=O)c2ccccc2C1=O)Nc1ccccn1", "Potency": "inactive"}, {"smiles": "COc1ccccc1C(=O)Nc1ccc(NC(=O)c2ccco2)c(C)c1", "Potency": "active: 8.91 µM"}, {"smiles": "COc1ccc(C(=O)Nc2ccc(N3CCN(c4ccc(OC)cc4)CC3)c(C#N)c2)cc1", "Potency": "inconclusive: 2.51 µM [inhibitor, partial curve]"}, {"smiles": "CCCCn1c(-c2cccs2)nc2nc3ccccc3nc21", "Potency": "inactive"}, {"smiles": "COc1cc(/C=C/C(=O)N(Cc2ccccc2)c2ccccn2)cc(OC)c1OC", "Potency": "inconclusive: 12.6 µM [inhibitor, partial curve]"}, {"smiles": "Cc1nc(NC(=S)Nc2ccccc2)sc1C", "Potency": "active: 22.4 µM"}, {"smiles": "Cc1ccc2sc(N(CCCN(C)C)C(=O)c3nc4ccccc4s3)nc2c1C", "Potency": "inactive"}, {"smiles": "CN(C)c1ccc(-c2nc(NCCc3cnc[nH]3)c3ccccc3n2)cc1", "Potency": "inconclusive: 11.2 µM [inhibitor, partial curve]"}, {"smiles": "Cc1ccc(C)c(S(=O)(=O)N2CCCOC2CNC(=O)C(=O)NCc2ccncc2)c1", "note": "(configuration not stated)", "Potency": "inactive"}, {"smiles": "COc1ccccc1-c1cc(C(F)(F)F)nc(NCc2cccs2)n1", "Potency": "inconclusive: 39.8 µM [inhibitor, single point]"}, {"smiles": "CC(=O)c1cccc(NC(=O)c2csc3c2CCCCC3)c1", "Potency": "inconclusive: 39.8 µM [inhibitor, single point]"}, {"smiles": "CCOC(=O)C1=C(C)NC(=S)N(C(C)=O)C1c1ccccc1", "note": "(configuration not stated)", "Potency": "active: 25.1 µM"}, {"smiles": "COc1ccccc1N1CC(C(=O)Nc2cccc(C(=O)O)c2)CC1=O", "note": "(configuration not stated)", "Potency": "inconclusive: 31.6 µM [inhibitor, single point]"}, {"smiles": "O=C1N(Cc2ccc3c(c2)OCO3)c2ccccc2C1(O)c1c[nH]c2ccccc12", "note": "(configuration not stated)", "Potency": "active: 3.16 µM"}, {"smiles": "Cc1cc(=O)oc2cc(OCc3ccc(S(=O)(=O)N4CCOCC4)cc3)ccc12", "Potency": "inconclusive: 22.4 µM [inhibitor, partial curve]"}, {"smiles": "CN1CCc2c(sc3c2c(=O)n(-c2ccccc2)c2n[nH]c(=S)n32)C1", "Potency": "inconclusive: 39.8 µM [inhibitor, single point]"}, {"smiles": "O=C(Nc1ccccc1)N1CCC2(CC1)CCN(C(=O)c1ccncc1)CC2", "Potency": "inactive"}, {"smiles": "COCc1cc(=O)n2[nH]c(-c3ccc(C)cc3)cc2n1", "Potency": "inconclusive: 12.6 µM [inhibitor, partial curve]"}, {"smiles": "N#Cc1c(NC(=O)c2cccnc2)sc2c1CCC2", "Potency": "inactive"}, {"smiles": "CCOc1ccc(CNC23CN4CN(CN(C4)C2)C3)cc1", "Potency": "inactive"}, {"smiles": "CN(C)c1ccc(-c2ccc3ncnc(NC4CC4)c3c2)cc1", "Potency": "inactive"}, {"smiles": "CCOC(=O)c1cccc(NC(=O)c2cccnc2)c1", "Potency": "inactive"}, {"smiles": "CCOc1ccccc1CNC(=O)c1cc2oc3ccccc3c2n1CC", "Potency": "inconclusive: 35.5 µM [inhibitor, single point]"}, {"smiles": "Cc1nnsc1C(=O)NCc1c(F)cccc1Cl", "Potency": "inactive"}, {"smiles": "COc1cc(/C=C2/C(=O)N(c3ccc([N+](=O)[O-])cc3)N=C2N2CCOCC2)ccc1O", "Potency": "inconclusive: 28.2 µM [inhibitor, partial curve]"}, {"smiles": "Cc1ccn2c(-c3csc(NCc4ccccc4)n3)c(C)nc2c1", "Potency": "inconclusive: 28.2 µM [inhibitor, partial curve]"}, {"smiles": "COc1ccc(C2=NN(c3ccccc3)C(=O)/C2=C\\c2ccc(O)c(OC)c2)cc1", "Potency": "active: 20 µM"}, {"smiles": "Cc1ccc(-c2csc(NC(=O)CSc3nnc4c(n3)[nH]c3ccccc34)n2)cc1", "Potency": "inactive"}, {"smiles": "CCOc1ccccc1N1CCN(S(=O)(=O)c2ccc3c4c(cccc24)C(=O)N3)CC1", "Potency": "inconclusive: 35.5 µM [inhibitor, single point]"}, {"smiles": "CC(Oc1ccccc1)C(=O)NC1C(=O)N2C(C(=O)O)C(C)(C)S[C@@H]12", "note": "(some centres not stated)", "Potency": "inactive"}, {"smiles": "CC(CCc1ccco1)NC(=O)c1cc2c(-c3ccccc3F)nn(C)c2s1", "note": "(configuration not stated)", "Potency": "inconclusive: 28.2 µM [inhibitor, partial curve]"}, {"smiles": "Cc1cc(C)c(C#N)c(SCc2c(F)cccc2[N+](=O)[O-])n1", "Potency": "inconclusive: 2.82 µM [inhibitor, full curve, poor fit]"}, {"smiles": "N#CC1=C(N)NC(SCc2ccccc2)=C(C#N)C12CCCCC2", "Potency": "active: 12.6 µM"}, {"smiles": "COC(=O)C/C=C/C(C)C(OCc1cccc(Br)c1)C(C)C(OC)C1CCCCC1", "note": "(configuration not stated)", "activity, negative = inhibition": "inactive: 6.59% [at 13.5 µM]"}, {"smiles": "Cc1ccc(C(=O)OCC(=O)Nc2sc3c(c2C#N)CCCC3)cc1NC(=O)c1ccco1", "Potency": "inconclusive: 35.5 µM [inhibitor, single point]"}, {"smiles": "CCN(CC(=O)NCc1cccs1)c1ccc(S(=O)(=O)N2CCCC2)cn1", "Potency": "active: 2.51 µM"}, {"smiles": "O=C1CCCc2c1cc(C(=O)O)c(=O)n2-c1ccccc1", "Potency": "inactive"}, {"smiles": "COc1ccccc1NC(=O)c1ccc2nc(N3C(=O)CCC3=O)sc2c1", "Potency": "inconclusive: 39.8 µM [inhibitor, single point]"}, {"smiles": "COCc1cc(/C=N\\NC(=O)COc2ccc(Cl)cc2)ccc1OC", "Potency": "inconclusive: 39.8 µM [inhibitor, single point]"}, {"smiles": "COc1ccccc1CNc1ncncc1-c1ccoc1", "Potency": "active: 25.1 µM"}, {"smiles": "CCC(C)NS(=O)(=O)c1ccc(OCC(=O)Nc2ccc3c(c2)OCO3)cc1", "note": "(configuration not stated)", "Potency": "active: 1.26 µM"}, {"smiles": "O=C1COCCOCCOCCOCC(=O)NCCN1", "Potency": "inactive"}, {"smiles": "Cc1cnc(CNc2ccnc(-c3c(C)noc3C)n2)cn1", "Potency": "inconclusive: 28.2 µM [inhibitor, single point]"}, {"smiles": "O=C(O)C1CC=CCC1C(=O)NCc1cn2ccccc2n1", "note": "(configuration not stated)", "Potency": "inconclusive: 31.6 µM [inhibitor, partial curve]"}, {"smiles": "Cc1ccc(S(=O)(=O)N2CC3CCCC2C3)cc1", "note": "(configuration not stated)", "Potency": "inactive"}, {"smiles": "Cc1ccc(NC(=O)CN2C(=S)NC(C)(C)CC2C)cc1Cl", "note": "(configuration not stated)", "Potency": "inconclusive: 35.5 µM [inhibitor, single point]"}, {"smiles": "Cc1nn(C(C)C(=O)NCc2ccccc2Cl)c(=O)c2c1sc1ccccc12", "note": "(configuration not stated)", "Potency": "inconclusive: 39.8 µM [inhibitor, single point]"}, {"smiles": "N#Cc1nc(COc2ccccc2F)oc1NCc1ccc(F)cc1", "Potency": "inconclusive: 11.2 µM [inhibitor, partial curve]"}, {"smiles": "COc1cc(C=O)ccc1OCCOCCOc1ccc(Cl)cc1", "Potency": "active: 3.55 µM"}, {"smiles": "C/C(Cl)=C\\Cn1c(O)c(N=O)c2ccccc21", "Potency": "inconclusive: 14.1 µM [inhibitor, partial curve, poor fit]"}, {"smiles": "COc1cc2nc(N3CCN(C(=O)C4COc5ccccc5O4)CC3)nc(N)c2cc1OC", "note": "(configuration not stated)", "Potency": "inconclusive: 25.1 µM [inhibitor, partial curve] and inconclusive: 31.6 µM [inhibitor, partial curve]"}]}]}
